Drawing on the GPR68 mutational scans of Howard et al. (2025), this text covers cAMP reporter score and surface expression score for 33 variants.

Scores with a large standard error are left out. The source holds two more conditions with little spread; they are left out. Read del as a deletion of the residues named and ins as an insertion between two positions. For part of these data: How much ogerin was present is not stated here.

The labels stand for the following.
B1: GPR68, Q15743 (parent)
chain: MGNITADNSSMSCTIDHTIHQTLAPVVYVTVLVVGFPANCLSLYFGYLQIKARNELGVYLCNLTVADLFYICSLPFWLQYVLQHDNWSHGDLSCQVCGILLYENIYISVGFLCCISVDRYLAVAHPFRFHQFRTLKAAVGVSVVIWAKELLTSIYFLMHEEVIEDENQHRVCFEHYPIQAWQRAINYYRFLVGFLFPICLLLASYQGILRAVRRSHGTQKSRKDQIQRLVLSTVVIFLACFLPYHVLLLVRSVWEASCDFAKGVFNAYHFSLLLTSFNCVADPVLYCFVSETTHRDLARLRGACLAFLTCSRTGRAREAYPLGAPEASGKSGAQGEEPELLTKLHPAFQTPNSPGSGGFPTGRLA

In series [1] the parent is B1. The series is described as follows: cAMP reporter score (Enrich2 score, wild type = 0); higher = more signal; HEK293T, FACS bins.
Series [2] covers variants of B1. The series is described as follows: surface expression score (Enrich2 score, wild type = 0); higher = more signal; HEK293T, FACS bins.

For W254Q, the cAMP reporter score in series [1] (pH 5.5) is 0.885; in series [1] (pH 6) it was 0.203; in series [1] (pH 6, modulator: ogerin), 1.19; in series [1] (pH 6.5, modulator: ogerin), 0.644. Also, the surface expression score in series [2] was -0.221.

For W254P, the cAMP reporter score in series [1] (pH 5.5) is -1.17; in series [1] (pH 6) it was -0.453; in series [1] (pH 6, modulator: ogerin), -1.06; in series [1] (pH 6.5, modulator: ogerin), -1.57. In addition, the surface expression score in series [2] is -0.595.

With W254H, the cAMP reporter score in series [1] (pH 5.5) is 2.14; in series [1] (pH 6) it was -0.012; in series [1] (pH 6, modulator: ogerin), 1.43; in series [1] (pH 6.5, modulator: ogerin), 0.784. Besides, the surface expression score in series [2] turned out to be 0.676.

Turning to W254G, the figures for the cAMP reporter score in series [1] (pH 5.5) and in series [1] (pH 6) were -0.789 and -0.425, respectively.

As to W254V, the cAMP reporter score is 0.309 in series [1] (pH 5.5); -0.256 in series [1] (pH 6); 0.177 in series [1] (pH 6, modulator: ogerin); -0.004 in series [1] (pH 6.5, modulator: ogerin). In addition, the surface expression score in series [2] was -0.419.

Take W254D: the cAMP reporter score in series [1] (pH 5.5) was -0.297; in series [1] (pH 6), -1.26; in series [1] (pH 6, modulator: ogerin), -1.26; in series [1] (pH 6.5, modulator: ogerin) it was -1.08. Also, the surface expression score in series [2] is -1.81.

Take W254S: the cAMP reporter score in series [1] (pH 5.5) is 0.772; in series [1] (pH 6) it was -0.536; in series [1] (pH 6, modulator: ogerin), 1.19; in series [1] (pH 6.5, modulator: ogerin), -0.289. Besides, the surface expression score in series [2] was -0.228.

Regarding W254F, the cAMP reporter score in series [1] (pH 5.5) came out at 0.159; in series [1] (pH 6, modulator: ogerin), 0.355. The surface expression score in series [2] amounted to 0.285.

Regarding W254R, the cAMP reporter score in series [1] (pH 5.5) was 0.185; in series [1] (pH 6), -0.514; in series [1] (pH 6, modulator: ogerin), 0.155; in series [1] (pH 6.5, modulator: ogerin), -0.299. Further, the surface expression score in series [2] was -0.542.

With W254I, the cAMP reporter score in series [1] (pH 5.5) is -0.11; in series [1] (pH 6, modulator: ogerin) it was -0.489; in series [1] (pH 6.5, modulator: ogerin), -0.77. Moreover, the surface expression score in series [2] was -0.025.

For W254L, the cAMP reporter score in series [1] (pH 5.5) was 0.2; in series [1] (pH 6), -0.111; in series [1] (pH 6, modulator: ogerin) it was 0.29; in series [1] (pH 6.5, modulator: ogerin) it was -0.733. The surface expression score in series [2] is -0.536.

As to W254N, the cAMP reporter score is 0.339 in series [1] (pH 5.5); -0.348 in series [1] (pH 6); -0.044 in series [1] (pH 6, modulator: ogerin); -0.212 in series [1] (pH 6.5, modulator: ogerin). Further, in series [2], the surface expression score is 0.157.

For W254K, the cAMP reporter score in series [1] (pH 5.5) was 0.085; in series [1] (pH 6), -0.477; in series [1] (pH 6.5, modulator: ogerin) it was -0.647. The surface expression score in series [2] was -0.537.

In the case of W254A, the cAMP reporter score is 0.045 in series [1] (pH 5.5); -0.615 in series [1] (pH 6); -0.193 in series [1] (pH 6, modulator: ogerin); -0.368 in series [1] (pH 6.5, modulator: ogerin). Further, the surface expression score in series [2] was -0.709.

For W254M, the cAMP reporter score in series [1] (pH 5.5) is -0.469; in series [1] (pH 6, modulator: ogerin), -0.33; in series [1] (pH 6.5, modulator: ogerin), -0.333. Also, in series [2], the surface expression score is -0.526.

With S257_C258insGSG, the cAMP reporter score in series [1] (pH 5.5) was -0.554; in series [1] (pH 6), -0.826; in series [1] (pH 6, modulator: ogerin) it was -0.973; in series [1] (pH 6.5, modulator: ogerin) it was -0.892. Moreover, the surface expression score in series [2] came to 1.5.

With R251A, the cAMP reporter score in series [1] (pH 5.5) was -2.3; in series [1] (pH 6), -1.11; in series [1] (pH 6, modulator: ogerin), -1.39. For the same variant, in series [2], the surface expression score is -0.221.

Take R251C: the cAMP reporter score is -1.61 in series [1] (pH 5.5); -0.69 in series [1] (pH 6); -0.89 in series [1] (pH 6.5, modulator: ogerin). Also, the surface expression score in series [2] was -2.12.

R251M: the cAMP reporter score in series [1] (pH 5.5) was -1.54; in series [1] (pH 6), -0.522; in series [1] (pH 6, modulator: ogerin) it was -1.42; in series [1] (pH 6.5, modulator: ogerin) it was -1.26. Besides, the surface expression score in series [2] was -1.15.

Take R251L: the cAMP reporter score is -2.66 in series [1] (pH 5.5) and -0.903 in series [1] (pH 6.5, modulator: ogerin).

As for R251Y, the cAMP reporter score in series [1] (pH 5.5) was -1.52; in series [1] (pH 6) it was -1.68; in series [1] (pH 6, modulator: ogerin), -1.54; in series [1] (pH 6.5, modulator: ogerin), -1.51. Further, the surface expression score in series [2] is -1.2.

On to R251K, for which the cAMP reporter score was -0.894 in series [1] (pH 5.5); -0.47 in series [1] (pH 6); -1.27 in series [1] (pH 6, modulator: ogerin); -1.24 in series [1] (pH 6.5, modulator: ogerin). The surface expression score in series [2] is -0.505.

As to R251I, the cAMP reporter score is -0.71 in series [1] (pH 5.5); -0.466 in series [1] (pH 6); -0.966 in series [1] (pH 6, modulator: ogerin); -0.627 in series [1] (pH 6.5, modulator: ogerin). In series [2], the surface expression score is -0.045.

On to R251N, for which the cAMP reporter score in series [1] (pH 5.5) was -0.27; in series [1] (pH 6), -0.851; in series [1] (pH 6, modulator: ogerin) it was -1.12. The surface expression score in series [2] amounted to 0.218.

On to R251G, for which the cAMP reporter score is -1.4 in series [1] (pH 5.5); -0.3 in series [1] (pH 6); -1.29 in series [1] (pH 6, modulator: ogerin); -1.65 in series [1] (pH 6.5, modulator: ogerin). The surface expression score in series [2] was -0.417.

Turning to R251S, the cAMP reporter score in series [1] (pH 5.5) was -1.45; in series [1] (pH 6), -1.06; in series [1] (pH 6, modulator: ogerin) it was -2.19; in series [1] (pH 6.5, modulator: ogerin) it was -1.88. Besides, the surface expression score in series [2] is -0.345.

On to R251V, for which the cAMP reporter score in series [1] (pH 5.5) is -1.11; in series [1] (pH 6), -0.932; in series [1] (pH 6, modulator: ogerin) it was -1.09; in series [1] (pH 6.5, modulator: ogerin) it was -2.55. Also, the surface expression score in series [2] was -0.577.

For the variant R251T, the cAMP reporter score in series [1] (pH 5.5) is -1.4; in series [1] (pH 6), -0.643; in series [1] (pH 6, modulator: ogerin), -1.9; in series [1] (pH 6.5, modulator: ogerin), -1.55. Further, in series [2], the surface expression score amounted to 0.399.

As to R251P, the cAMP reporter score in series [1] (pH 5.5) is -1.23; in series [1] (pH 6) it was -0.048; in series [1] (pH 6, modulator: ogerin), -1.92; in series [1] (pH 6.5, modulator: ogerin), -0.966. For the same variant, the surface expression score in series [2] is -1.51.

For R251E, the cAMP reporter score in series [1] (pH 5.5) was -1.12; in series [1] (pH 6), -1.36; in series [1] (pH 6.5, modulator: ogerin), -1.04. For the same variant, the surface expression score in series [2] was -1.09.

As for R251W, the cAMP reporter score in series [1] (pH 5.5) was -1.34; in series [1] (pH 6, modulator: ogerin), -1.55; in series [1] (pH 6.5, modulator: ogerin), -1.39. For the same variant, the surface expression score in series [2] is -0.438.

Take R251D: the cAMP reporter score in series [1] (pH 5.5) is -1.78; in series [1] (pH 6, modulator: ogerin) it was -0.693; in series [1] (pH 6.5, modulator: ogerin) it was -0.992.

For the variant R251H, the cAMP reporter score in series [1] (pH 5.5) is -1.46; in series [1] (pH 6), -0.852; in series [1] (pH 6, modulator: ogerin), -2.08; in series [1] (pH 6.5, modulator: ogerin), -1.75. The surface expression score in series [2] is -0.988.
